# This is one part of the list.
# System: PfAP2-HC AP2 domain (GST-tagged)
# Test: gcPBM binding intensity (ln(normalized median fluorescence intensity)); higher = stronger DNA binding
# In short: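 After 1 h on an Agilent 4 × 180k array of primer-extended double-stranded 36-bp intergenic genomic probes and negative controls, bound GST-tagged P. falciparum DNA-binding domains were detected with Alexa488 anti-GST antibody and scanned at 488 nm. The domains had been expressed in E. coli, and binding took place in 1× PBS with 1% milk, 0.2 mg/ml BSA, 0.5% salmon testes DNA and 0.03% Triton X-100. Binding intensity is the highest Masliner-normalised natural-log median intensity across replicate spots of either probe orientation.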
row,Sequence,gcPBM binding intensity (ln)
1,TATATATATATATATGTACACACATCAATCATATTA [CACACA_site8594],9.75
2,GAATAAATAATTAACACACACAATCTTTTTTTTTTT [CACACA_site3140],10.5
3,AAAAAAAAAATAAAATAAAATATATTATATATATTA [GTGCAC_negctrl_site431],9.5
4,CCACAGGATTGGTTCAAACACACATATTATATGACT [CACACA_site661],9.81
5,TATTTTTTTTTTTTTTGTACACATAATTGTAATCGT [XGTACX_site8415],9.67
6,CATATAAAAATGTGCACACACACACCGATATATATT [CACACA_site4940],10.6
7,TGTACGAGTCGTAGAGTGCAGTCTGGAGAAAAGTAC [GTGCAC_site9683],9.65
8,TATATATATATATATACACACTTGTGCAGAATATTA [CACACA_site5257],9.79
9,TATAAATGTGTATGCGCATGTAAAAATATAATTTAT [TGCATGCA_site750],9.78
10,GTAAATAATAAACACCGTACATGGTATAATTCAATG [XGTACX_site3655],9.87
11,AAATAAATAAATAGACGTACAAAAATATTATACATT [XGTACX_site6776],9.89
12,AATAATGAAAAAATGAATAAAATTACTATATAATTC [XGTACX_negctrl_site457],9.63
13,GATATGATGTGTTTGGTAGTTTTTGATGTTGGCATG [GTGCAC_negctrl_site506],9.73
14,ACAAAAAATTAATGAGAAATGGAATAATAAGTTATA [GTGCAC_negctrl_site321],9.57
15,GGATATTAATAAATATGTACATATGTAGATTTATTA [XGTACX_site554],9.8
16,AAGAAAAAAAAAAAAACACACATATATATATATATA [CACACA_site2027],10.2
17,ATATATAAATATATATGTACATAAATATATATCTTT [XGTACX_site6910],9.69
18,TGTATACCTTAATATACACACATACCTATATTTATA [CACACA_site6746],9.8
19,TATAAATAGAGGAAGCGTACATATATATATATATAT [XGTACX_site4993],10.2
20,GAACTCATTACAAAGTGTACAAATTAAATAAATGGT [XGTACX_site3995],9.68
21,TTTTTCTTATTTGGATTGCACTACATATATATATAT,9.96
22,AGGTGCTTAATATATACACACATACAGATATATATA [CACACA_site5552],9.8
23,AAAATTTTTTGAAATAGTACTTTTTTATATATATAT [XGTACX_site2634],9.57

row,Sequence,gcPBM binding intensity (ln)
1,ATAAGGTTACAACAAACACACAAAGGAATATACACA [CACACA_site7840],10.3
2,TATAAATTTATATATGCATGTCAGAAAAAAAAGTAA [TGCATGCA_site414],9.61
3,CAACAAAATAAACACACACACACAAACACAAAAAAA [CACACA_site5806],11.4
4,GTGAGTGAAATATGCAAACACACACCCGAAAAATGT [CACACA_site3197],10.2
5,TATGATTTTAATGAAACACACAATTTTATGTTAATA [CACACA_site311],9.56
6,TATAAAGGTATACAAAGTACAAAATACATATATACT [XGTACX_site6431],9.81
7,TAAAGTTTTTCCTATCTATATTTATATTATAAATGA [XGTACX_negctrl_site20],9.35
8,TTTAATATTATTATTTTACACACTTTTTTCCTTTTA [CACACA_site8780],9.81
9,CAAATAATATTATGAAGTACTTCAAATTTTGAAAGA [XGTACX_site2530],9.59
10,TCTTATAAACTCTGCACACATAATATATTAAATGAG [CACACA_site1936],9.7
11,AATATAGGTATATCCACACACATATTTATATTTATA [CACACA_site6867],10.1
12,TGTGTATAAGTCACTTGTACTAGTAGTAAAAAAAAA [XGTACX_site4341],9.64
13,TAATATATGTTATATACACACATATAAATATAAATA [CACACA_site6339],9.67
14,TGAAGTATAATTTATCTAATATGTTATATTTTATTT [TGCATGCA_negctrl_site56],9.55
15,ATATTAATTTCTCATGCATGTTCTACCCAATTGTAA [TGCATGCA_site355],9.73
16,AAAAAAAAAAAAAATTCACACAAGACTACTACATTT [CACACA_site4195],9.78
17,TTTTGTTATTATGAAGTGCATTTATGTTCATGTCTA,9.68
18,AAAATCTAATATAATGCACACATAAAAAAAAATCAA [CACACA_site9211],9.82
19,ACCCTTTTATATAAGAGTACAAACGTATTATTAAAT [XGTACX_site2221],9.52
20,AATATTAAAAACAAAACACACAAAAAAAAATAAAAT [CACACA_site702],10.1
21,ATATATGACTAATAAAGTACATACTTCATATAATTA [XGTACX_site6699],9.7
22,TATATTATATATATACTGCACTGTTTTACAAAATTA,9.63
23,AACGTGTATTTATATTGTACACATTCATACATCAAA [XGTACX_site3644],9.64

row,Sequence,gcPBM binding intensity (ln)
1,GTAGTGGTTGAATATACACACATATATATATATATA [CACACA_site2651],9.73
2,AGATAATAGGTTACTTGTACATATAAATAAATATAT [XGTACX_site158],9.65
3,CTTGTCATTTGGCACACACACATGTATAGGTTATTA [CACACA_site5656],10.2
4,TATATAAATAAACACACACACACCTTATAATTATTA [CACACA_site9345],10.5
5,AACAGATAATATAAAAAAAAAAAAAAAAATAATTAA [GTGCAC_negctrl_site69],9.48
6,TTTTAGTTATTGTATTATTATTAATATATAATATCT [CACACA_negctrl_site1528],9.7
7,CTAAAATGTAAAAACGCACACATAATATTATAAAAA [CACACA_site2788],10.1
8,AAAGCATGTTAATATGTATAAATACTGATCATTCAC [GTGCAC_negctrl_site576],9.7
9,TTTTTTTTTTATTAATGTACAAGATATATAATGTTA [XGTACX_site4809],9.44
10,TATAATATAAAAATGAGTACATAGATAATAATATTT [XGTACX_site2376],9.82
11,TATATAGTAAATATTTGTACATAATAAAATATATGT [XGTACX_site7873],9.77
12,ATATTTTATTATATAGGTACACATAATTTCATGTAA [XGTACX_site415],9.5
13,ATCTTAATTTTTGAAGGTACACACTAATATATTAAA [XGTACX_site2292],9.58
14,AATAAATAAAAATGCACACAGTTAACATGTTGAATT [CACACA_site4795],10.2
15,TTTTGTACATCTTTTGCACACGTAATGTTATTATAA [CACACA_site1259],9.94
16,TTTAAAGTTTTATACACACACCAAAGTTATTCTAAT [CACACA_site6432],9.9
17,CAATGAAAAATAATGAGTACATAGTTAATAAAGATA [XGTACX_site72],9.71
18,ATAATTAAAATTAAATGTACTTTTTTATATATTTTT [XGTACX_site2209],9.61
19,AATTTCTTTTTCGATATACACACTGTATGTGTCTAA [CACACA_site3975],10.2
20,AATGATACACATATATGTACATATATATATATATAT [XGTACX_site5391],9.9
21,TGCAATATATCAAAGTGTACATGCAATAAAAAAAAA [XGTACX_site652],9.65
22,ATATGGATTATACATACATGCATACATACATACATA [TGCATGCA_site475],9.64
23,TATATACATATATGCACACAAAAAAATATATATTTT [CACACA_site1729],9.9

row,Sequence,gcPBM binding intensity (ln)
1,AAATGTAGAAAAAGTTGTACACTGTTTCAAAAATAA [XGTACX_site1063],9.64
2,AAAATTTAATATAATGCACACATAAAACAAAAACAA [CACACA_site8071],10.1
3,TTATAATATATATAAAAGAAAAAAAATTATAATATA [CACACA_negctrl_site90],9.36
4,TTATTTTTCTTTATTGGTACACACGAAAAAAAAATT [XGTACX_site6482],9.52
5,GCCCACACGAACCATGCATGCCACGATATAAACCAC [TGCATGCA_site322],9.9
6,TTTTTTACAGAAAAATATTAAAATTATAAATGTGAA [GTGCAC_negctrl_site451],9.28
7,TAATATATATATATGGTGCATTTAATTTATATATAA,9.49
8,TATGAAATTTTAATTACACACAGGAAAATAAAATGT [CACACA_site8430],9.93
9,AAGAAGTGGAAAATATACTCCACATATATATATGTG [CACACA_negctrl_site304],9.67
10,AAAAAACAATTTGTGTGTACACATGATACGTTCGAT [XGTACX_site4112],10.1
11,ATATATATTTTTAATTGTACAGAATTAAAAATATTG [XGTACX_site1967],9.43
12,CTTTAACCATATATGTGTACGTATTTTATTCATATT [XGTACX_site6212],9.99
13,AAAAAAAAAAAAAGCTGTACAATTAAAGACAAACCT [XGTACX_site8610],9.78
14,GGAAAAATATAATATGCATGTTATTATTTTTTTATA [TGCATGCA_site836],9.54
15,TTTTTATTTATTCTCTTTGTATTATAAAATAAAAGC [XGTACX_negctrl_site253],9.2
16,ATATATATATAATGTTGTACATAAATATTATATTTA [XGTACX_site5225],9.38
17,ACATGTGAATTTTAGGTGCACTTGTAATTTAACATT,9.83
18,ATATATATATTATATAGTACAGAGTATACTATTATA [XGTACX_site1893],9.71
19,CAAAAAGGAATGTATGCACACAATTGATTTTAACTC [CACACA_site1468],10.2
20,AACGATATATGTACTACACACATTATGTCATCCTAT [CACACA_site2464],10.2
